Laboratory results reported in the RNAGym collection of RNA variant scans (doi:10.7554/elife.90254).
Read counts are not given, so values of variants with three or more changes are uncertain.

B1: LINE1-mini (parent)
chain: GGCAGAGCUCAACACAGCGUGGCAAAGUGGCUGUGGCUAGACUGCC

Variants of: B1
Assay: self-cleavage, relative activity (ratio to wild type); higher = more cleavage; in vitro, sequencing; the parent is a self-cleaving ribozyme
For GGCAGAGCUCAACACAUCGUGGCAAAUUGGCUGUUGCUAGACUGCC, the self-cleavage was 0.06. Work on GGCAGAGCUCAACACAUCGUUGCAAAGUGGCUGUGGCUAGACUACC yielded a self-cleavage of 0.02. GGCAGAGCUCAACACAUCGUGGCAAAGUGGCUGCGGCUAGACUCCC showed a self-cleavage of 0.47. GGCAGAGCUCAACACAUAGUGGCAAAGUGGCUGUGGCUAGUCUGCC gave a self-cleavage of 0.25. For GGCAGAGCUCAACACAUCGUGACAAAGUGGCUAUGGGUAGACUGCC, the self-cleavage was 0.01. In the case of GGCAGAGCUCAACACAUCGUGGCAAAGUCGCUGUGGAUAGACUGCC, the self-cleavage is reported as 0.05. In the case of GGCAGAGCUCAACACAUCGUGCCAAAGUAGUUGUGGCUAUACUGCA, the self-cleavage is reported as 0.11. GGCAGAGCUCAACACAUCGUGGCAAAGUGGCUGAGGCUAGACUGAC gave a self-cleavage of 0.02. GGCAGAGCUCAACACAUCGAGGCAAAGUGGCUGUGGCUAGACGGCC gave a self-cleavage of 0.01. GGCAGAGCUCAACACAUCGUGGCAAACUGGCGGUGGCUAGACUGCC showed a self-cleavage of 0.05. In the case of GGCAGAGCUCAACACAUCGUGGCAAAGUUCCUGUGGCGAGACUGCC, the self-cleavage is reported as 0.02. For GGCAGAGCUCAACACAUCGUGGGAAAGUGGCUGUGGCUCGACUGCC, the self-cleavage was 0.07. GGCAGAGCUCAACACAUCGUGGCAAAAUGACUGCGGUUAGACUGCC gave a self-cleavage of 0.13. For GGCAGAGCUCAACACAUCGUGGUAAAGUUGCAGGGGCUAGACUGCC, the self-cleavage was 0.02. Variant GGCAGAGCUCAACACAGAGUGGCCAAGUGGCUGUGGCUAGAUUGCC has a self-cleavage of 0.03. Work on GGCAGAGCUCAACACAUCGUGGCAAAGUGGCUGUGGGUUGACUGCC yielded a self-cleavage of 0.02. Work on GGCAGAGCUCAACACAUCGUGGUAUAGUGGCUGUGGCUAGACUGCC yielded a self-cleavage of 0.13. With GGCAGAGCUCAACACAUCGUUGCAAAGUGGCUGCGCCGAGACUGCC the self-cleavage was 0.01. With GGCAGAGCUCAACACAUCGUGGCAAAGUGGCUGAGCCUAGACUGCC the self-cleavage was 0. With GGCAGAGCUCAACACAUCGCGGCAAAGUGGCUUUGGCUAGACUGUC the self-cleavage was 0.04. GGCAGAGCUCAACACAUCGUGGUAAAGUUGCUGUGGCUAGACUGCC gave a self-cleavage of 0.37. GGCAGAGCUCAACACAUCUUGACGAAAUGGCUGUGGCUAGACUGGC showed a self-cleavage of 0.28. Work on GGCAGAGCUCAACACAUCGUGACAAAGUGGCUGUGGCUAGACUUCC yielded a self-cleavage of 0.05. With GGCAGAGCUCAACACAUCGGGGCAAAGUGGCUGUCGCUAGACUGCC the self-cleavage was 0.03. GGCAGAGCUCAACACAUCGUGACAAAGUGGCUGUGGCUGGACUGCC showed a self-cleavage of 0.04. GGCAGAGCUCAACACAUCUUGGCAAAGUGGCUGUGGGUAGACUGCC gave a self-cleavage of 0.07. For GGCAGAGCUCAACACAUUGUGGAAAAGUGGCUUUGGCUGGACUGAC, the self-cleavage was 0. Variant GGCAGAGCUCAACACAUCGUGGCAAAGUUGCUGUUGCUAGACUGCC has a self-cleavage of 0.07. Work on GGCAGAGCUCAACACAUCGUGGCAAAGUGGCUGUAGCUAGACUACC yielded a self-cleavage of 0.13. For GGCAGAGCUCAACACAUCGUGGUAAAGUGGCUGUGGCUAGACUGGC, the self-cleavage was 0.02. GGCAGAGCUCAACACAUCGUGGCAAAGUGGCUGUUGCUAGACAGCC showed a self-cleavage of 0.11. In the case of GGCAGAGCUCAACACAUAGUGGCAAAGUGGCUGUUGCUAGACUGCC, the self-cleavage is reported as 0.07. For GGCAGAGCUCAACACAUCGUGGCAAAUUGGCUGUGGCUCGACUGCC, the self-cleavage was 0.01. Variant GGCAGAGCUCAACACAUCGUUGCAAAGUAGCUGUGGCUAGACUGCC has a self-cleavage of 1.81. Variant GGCAGAGCUCAACACAUGGUGGCAAAGUGGCUGUGGCUUGACUGGC has a self-cleavage of 0.01. Variant GGCAGAGCUCAACACAUCGUGGCAAACUGGCUGUGGCUAUAUUGCC has a self-cleavage of 0.02. Work on GGCAGAGCUCAACACAUUGUGGCAAAGUGGCUGUGGCUCGACUGCG yielded a self-cleavage of 0.02. GGCAGAGCUCAACACAUCGUGGCAAAGUGGCAGUGGCAAUACUUCC gave a self-cleavage of 0.03. GGCAGAGCUCAACACAUCGCGGCAUAGUGGCUGUGGCUAUAGUGCC gave a self-cleavage of 0.01. GGCAGAGCUCAACACAUCGUCGCAAAGCGACUGUGGCUAGACUGCC showed a self-cleavage of 0.67. For GGCAGAGCUCAACACAUCGUUGCAAAGUGGCUGUGGCUAGACCGCC, the self-cleavage was 0.08. Work on GGCAGAGCUCAACACAUCGUCCCAACGUGGCGGUAGCUAGACUGCC yielded a self-cleavage of 0.24. With GGCAGAGCUCAACACAUCGUGGCAAAGUUGCUUUGGCUAGAUUGCC the self-cleavage was 0.06. Variant GGCAGAGCUCAACACAUCUUGGCAGAGUGGCUGUGGCUAAACUGCC has a self-cleavage of 0.02. For GGCAGAGCUCAACACAUCGUGGCAAAGUGGCUGUGGUUAGACUCCC, the self-cleavage was 0.05. Work on GGCAGAGCUCAACACAUCUUGGCAAUGUGGCUGUGGCUAGACUACC yielded a self-cleavage of 0.03. GGCAGAGCUCAACACAUCGUGGCAAAGUGGCUGUGUCUAGACAGCC gave a self-cleavage of 0.18. In the case of GGCAGAGCUCAACACAUUGUGGCAAAGUUGCUGUCGUUAGACUGCC, the self-cleavage is reported as 0.02. Work on GGCAGAGCUCAACACAUCGUAGCAAAGUGGCUGAGGCUAGACUGCC yielded a self-cleavage of 0.05. In the case of GGCAGAGCUCAACACAUCGUGGCAAACUGGCUGUGGCUAGCCUGCC, the self-cleavage is reported as 0.12. In the case of GGCAGAGCUCAACACAUCGUGGCAAAGUGGAUGUGGCUAGACUGCG, the self-cleavage is reported as 0.49. For GGCAGAGCUCAACACAUCGUGGCAAAGCGGCUGUCGCUAUAAUGCC, the self-cleavage was 0.03. In the case of GGCAGAGCUCAACACAUCUAGACAAAGUUGCUGUGGCUAGACUUCC, the self-cleavage is reported as 0.02. GGCAGAGCUCAACACAUCAGGGCAAAGUGGCAGUGGCUAGUCUGCC showed a self-cleavage of 0.01. Variant GGCAGAGCUCAACACAUCGUGGCAAAGUGGUUGUGACACGACUGCC has a self-cleavage of 0.03. In the case of GGCAGAGCUCAACACAUGGUUGCAUAGUGGGUCUGGCUAGACUGCC, the self-cleavage is reported as 0.11.
